This is an account of results in the supplement of paper PMC10126150.

The subject of the series is ATP. The experiment in a line: switch fluorescence ratio, 500 uM ATP over buffer (Cy3 cluster intensity, sum of 5 cycles each) (fold (ratio)); higher = stronger signal-on switching upon ATP binding; sequences stand for … in TCGTCGGCAGCGTCAGATGTGTATAAGAGACAGTTTTTTTTTTTTTTTTTTTTTTTTT…TC. To be noted: aptamer strand: ATP DNA aptamer (quencher-CACCTGGGGGAGTATTGCGGAGGAAGG + anchor), 100 nM annealed; ATP concentration: 500 uM; one replicate. Summed up:
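For every switch-domain sequence, the fluorescence ratio is the mean of per-cluster values, each being summed target-cycle Cy3 intensity over summed buffer-cycle Cy3 intensity. Clusters outside 100-1000 RFU were excluded. On a modified Illumina MiSeq flow-cell, the Cy3-labelled switching-strand clusters were annealed to 100 nM quencher-labelled ATP aptamer, imaged in selection buffer and then after 15 min with 500 uM ATP at 22 °C. Five such cycles were run, with NaOH stripping and re-annealing between them.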

Values marked as one replicate rest on one cluster of the flow cell; about a third of the high ones do not repeat.
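Note: ATP exposure 15 min at 22 °C before imaging.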

For the sequence TCATGTCTTT, the switch fluorescence ratio was 1.01. As to TTAGTGCCA, the switch fluorescence ratio was 0.999. Take TGTCTTCGAA: the switch fluorescence ratio was determined as 0.987. For ACGAAGGAGT the value was 0.991; for ACATAGAGCG, 1.06; for CACTGTATGC, 1.17.

Consider GGTGGAGGGC, for which the switch fluorescence ratio came to 1.01.

Regarding ACTCCTGAAG, the switch fluorescence ratio was 0.995. In the case of TGCGCTGTAA, the switch fluorescence ratio was determined as 1.05.

Take ACGCGGGGCA: the switch fluorescence ratio is 1.03. For the sequence TTATAGTCGG, the switch fluorescence ratio amounted to 1.02. As for CGGCGGACGG, the switch fluorescence ratio stood at 1.01.

With CTCAAATAGT, the switch fluorescence ratio came to 1.02.

GTTTTCGTGT: the switch fluorescence ratio was found to be 0.992. For CCGACGGCTG the value was 1.54; for AGCCCGTATC, 1.03. For CAGCCGAAAT the value was 1.96; for TAGTCGTCAG, 0.977; for ACCTCTTTGG, 0.994. Regarding GAGGGGCAGA, the switch fluorescence ratio was found to be 1.07.

As for GAGCGTAATT, the switch fluorescence ratio was 1.02. CATGATTACA: the switch fluorescence ratio was determined as 1.02. On to CTGATCCGAC, for which the switch fluorescence ratio came out at 1.51. On to TCGGGGCCTA, for which the switch fluorescence ratio came out at 1.02. Regarding GCGAGTTTCC, the switch fluorescence ratio turned out to be 1.03.

GATGTGCCAC: the switch fluorescence ratio is 1.03.

For the sequence GCGCTTGTTT, the switch fluorescence ratio was 1.06. With CATGAGATTA, the switch fluorescence ratio stood at 1.02.

TGTGTTTGCT: the switch fluorescence ratio came out at 0.973.

CGTTAGTGCT: the switch fluorescence ratio stood at 0.962. Take CAGATACATT: the switch fluorescence ratio stood at 1.04.

For TCACCTTGCG, the switch fluorescence ratio is 1.07.

As to TTCCTCGTAT, the switch fluorescence ratio came out at 1.31. On to TCCTTTCTGG, for which the switch fluorescence ratio was 0.993. Consider AAAATTTTTC, for which the switch fluorescence ratio is 0.987. As to ATCGGACCGC, the switch fluorescence ratio came to 1.07.

As to TAGATTGTGA, the switch fluorescence ratio worked out at 0.965. For CAGTAGAGAG the value was 1.02; for ACCTTGTCAT, 1.

Consider TTGCATGTAG, for which the switch fluorescence ratio worked out at 1.03. Regarding GCCCATAAGG, the switch fluorescence ratio is 0.987. For the sequence CTGGTCAGGT, the switch fluorescence ratio worked out at 1.06. For the sequence TGCAATTAC, the switch fluorescence ratio was 3.48. Consider TAAGACGCAC, for which the switch fluorescence ratio amounted to 1.59. Consider AACGCGCCAC, for which the switch fluorescence ratio was found to be 1.52. With TACGCGGGAC, the switch fluorescence ratio turned out to be 1.05. AGCTGGATTA: the switch fluorescence ratio was found to be 0.984. As for TACGAATGAT, the switch fluorescence ratio stood at 1. AAATTTATGC: the switch fluorescence ratio came to 0.989. CGACAAGCAT: the switch fluorescence ratio amounted to 1.84.

Regarding GCTGGGTCT, the switch fluorescence ratio was found to be 1.02. As for TCGCGTTATC, the switch fluorescence ratio was 1.11.

With AATCTCAGTA, the switch fluorescence ratio is 0.924. The result for CGCATGCAAG reads 1.03; that for ATGTTTGAAT, 0.998; that for GCGCGAAATG, 1. Take TAGAGTCGGA: the switch fluorescence ratio came out at 0.986. On to CATTATGACT, for which the switch fluorescence ratio amounted to 0.984. In the case of GGGGGTCTCT, the switch fluorescence ratio was 0.99. The result for CTTGTACATA reads 0.987; that for AAAAACAACC, 1.17. As for GATGCGAGTC, the switch fluorescence ratio came out at 1.03. GTCAATATTA: the switch fluorescence ratio was 1.02.

Regarding TCATGCTCTT, the switch fluorescence ratio stood at 0.962.

Take CGTGAAGCCT: the switch fluorescence ratio was 1.03.

In the case of TGGTAAGGGA, the switch fluorescence ratio was 1. The result for CGAGCAGACA reads 1.46; that for CTTTATTA, 1.01. For AATCTATAAG the value was 0.999; for AGTATACTGC, 0.969. On to TGAGCCTGGT, for which the switch fluorescence ratio is 0.999. For TGGCCGGCCG, the switch fluorescence ratio amounted to 0.993.

As for ACACAGGCAA, the switch fluorescence ratio is 0.942.

With GGCATTCCGG, the switch fluorescence ratio turned out to be 0.993.

Regarding TTCCGGGTT, the switch fluorescence ratio came to 1.03.

With ACGTCACGCA, the switch fluorescence ratio was 1.65.

As for ACGAGGGGGT, the switch fluorescence ratio was 1.08.

As for CTAGAGGTTT, the switch fluorescence ratio came out at 0.977. For TCCACTTTTT the value was 0.972; for TAGGACCGGT, 1.05; for TCCAGGGGTT, 1.18. On to GATGAGTTTG, for which the switch fluorescence ratio came out at 0.957. For the sequence GACACTGGGA, the switch fluorescence ratio came to 1. For GACCGAGTAA, the switch fluorescence ratio was found to be 1.29.

For CTTTATGGAT, the switch fluorescence ratio was 1.05.

Take ATCCTTACAA: the switch fluorescence ratio was determined as 1.04.

On to AGAAGGGACT, for which the switch fluorescence ratio worked out at 0.978.

With ACCAGGGGAA, the switch fluorescence ratio was 1.02. CTGGAACGAG: the switch fluorescence ratio worked out at 1. For ACCCGTGCTT the value was 1.04; for TGGTAGACTT, 0.976. Take CCCCCCATCA: the switch fluorescence ratio was determined as 1.03. Consider GCCATTGATC, for which the switch fluorescence ratio was 0.981. On to GGGCATGGCG, for which the switch fluorescence ratio came out at 1.04. In the case of CTACGGTTAA, the switch fluorescence ratio amounted to 1.08. Consider AACTTAAACG, for which the switch fluorescence ratio is 0.979. For TGAAGCT the value was 0.965. AAGTCGCTAT: the switch fluorescence ratio amounted to 0.971.

TGCAACGCCC: the switch fluorescence ratio was determined as 1.05.

In the case of CGGGCGGAGC, the switch fluorescence ratio was found to be 0.962. For TGGCCCGG the value was 0.995. As to ATGATGGTGC, the switch fluorescence ratio was determined as 1.13.

For the sequence ATAACAATTT, the switch fluorescence ratio turned out to be 1.03. Regarding CTATTTCAAA, the switch fluorescence ratio turned out to be 0.967. For TCGGCCTTTC the value was 1.45. Regarding TCCGTGAATA, the switch fluorescence ratio amounted to 1.94. For TGCTTCCCTT, the switch fluorescence ratio was 1.03.
